Experimental data published in the supplement of paper PMC3334620.
In all, about 33,000 sequences were measured (“E-score (-0.5 to 0.5)”: median about -0.016, highest 2% from about 0.31 on). Some of the results follow.

What follows are sequences tested against Cst6 (UniProt P40535) (assay: PBM E-score (8-mer binding enrichment) (E-score (-0.5 to 0.5)); higher = stronger / more preferred TF binding; most listed sequences are background and not binding sites). Conditions: protein concentration: 200 nM; construct: GST-DNA-binding domain.
In short: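 Yeast transcription factors, full-length or as DNA-binding domains, were expressed with a GST tag using PURExpress in vitro transcription/translation. At about 100-200 nM they were applied to universal all-10-mer Agilent arrays, double-stranded by primer extension on fresh or once-stripped slides. Fluorescent anti-GST detected bound protein, and masliner normalised the scans. E-scores for ungapped eight-base words, pooled with reverse complements, came from the Universal PBM Analysis Suite.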

Sequence | PBM E-score
AAGGCGTG | 0.0823
GACGCCCA | -0.0679
AGGCGAAC | 0.0412
GAGAAGCA | -0.16
CTAATAAA | 0.169
AGGCCAAT | -0.11
CCGTTAGG | -0.0476
AGCTAACA | -0.0347
CAATAGAC | 0.118
ATCCCTAC | 0.0151
GAGAGGGA | -0.244
ACATCCCA | -0.293
GTGTTGGA | -0.133
CACCTTAA | -0.0664
CGGGTCAA | -0.154
CATCGTAC | 0.114
GTCGACAC | 0.0472
TACGTAAA | 0.42
AATTATGG | 0.0357
TGGTCAAA | 0.139
CCAGCCCC | -0.249
TGTGAACA | -0.0456

Sequence | PBM E-score
ACAAGGGA | -0.196
ACGCTCGA | -0.0322
AGTTGTAG | 0.00052
GCTGCGCA | -0.273
AGCTGACA | -0.0546
AGCGGCCT | -0.215
CCGTATTC | 0.107
GCTAAGTA | 0.11
CCTTTGCA | -0.068
GATTCTAA | 0.0395
GTCATTGA | 0.391
AAATCGGA | -0.105
AAGTCCGG | -0.178
ACCGCACA | -0.102
ACCTATTC | 0.0432
AAAGGCTA | -0.0383
GCGTCACA | 0.417
ACGTCGGC | 0.0982
CCTCCAAA | -0.125
AGTAAGAG | -0.00433
CACACCGC | -0.118
AACATAGG | 0.0366

Sequence | PBM E-score
TAAACTGA | 0.157
GGACTAAA | -0.124
CGATCGGC | 0.124
AAAGTCGC | 0.107
AATCAGAG | 0.136
CGGACTGA | -0.0715
GTAACACA | 0.169
AACAGTAG | 0.128
CGCCCCTA | 0.00628
CAAGAGAA | 0.0843
ACGACGTC | 0.218
CGTACTGA | 0.0783
ACGGAGCT | -0.159
ATTTTCTG | 0.115
AAGCCCCA | -0.303
ATAACTGC | 0.0217
AGCAAGTC | -0.17
ATCTATCG | -0.00165
GCCTAGGA | -0.179
CAATTGAG | 0.169
CTGCTTGC | -0.153
ACACCCCG | -0.285

Sequence | PBM E-score
ACAGCACA | 0.172
GCCCCGCA | -0.183
CGGCTTTA | 0.0731
ACTTAGCT | -0.266
ATCTGTAA | 0.0335
AACTAACG | 0.141
ACCTGTCT | -0.266
GCGAGAAC | -0.0934
TACGGCCA | -0.0107
GCATCCGA | -0.118
AGTCGACC | -0.227
ATGGGCAG | -0.151
CCCGAAGA | -0.151
CCAAACGA | -0.123
TAAACTTA | 0.0492
ATGGGAGA | -0.136
CTGTTTCA | 0.0336
GGAGAACC | -0.242
AGGCGCGG | 0.0345
GTGCCAAC | -0.144
